Consider 42 compounds from ChEMBL document CHEMBL4888484, “Replenishing the malaria drug discovery pipeline: Screening and hit evaluation of the MMV Hit Generation Library 1 (HGL1) against asexual blood stage Plasmodium falciparum ,using a nano luciferase reporter read-out” (2022).

Each structure is given as a SMILES string. The whole screen tested about 150,000 compounds, of which about 540 (0.36%) showed an effect of 50% or more. The list shows a part of the results.

In the experiment the test system is Plasmodium falciparum. Description: Primary screen in NF54 nanoGlo assay, in single point, at 2uM, 72h; a lower Z score goes with more inhibition. Type of experiment: functional, Erythrocyte. The conditions noted are these: timepoint 72 hour.
For the compound `COC1CCC(CCNC(=O)CN(C)C2CC2)CC1` (centres undefined), the “% Inhibition” value worked out at 0% and the Z score is on record as 0.

As to `O=C1NCCN(C(=O)Nc2ccc(CCc3ccccn3)cc2)[C@H]1CCO`, the “% Inhibition” value is 1% and the Z score was -0.09.

With `O=C(c1ccc2ccccc2n1)N1CCN(C(c2ccccc2)c2ccccc2)CC1`, the “% Inhibition” value is -7% and the Z score is reported as 1.03.

`CCC[C@H]1C(=O)NCCN1C(=O)N(CC)C(C)C`: the “% Inhibition” value was -12% and the Z score was 1.13.

For `O=C(NCc1cccc(F)c1)N1CCC(n2cc(-c3ccccc3)nn2)CC1`, the “% Inhibition” value is recorded as -3% and the Z score amounted to 0.56.

Regarding `Cc1ncc([C@H](C)NCCOc2ncc(Cl)cc2Cl)c(C)n1`, the “% Inhibition” value was -12% and the Z score came out at 1.09.

For `Cc1nc(NC(=O)N[C@@H](C)Cc2cccs2)nn1C(C)C`, the “% Inhibition” value was -6% and the Z score came to 0.52.

`CCc1ccccc1C(N)CNC(=O)N1CCCC(OC2CCC2)C1` (centres undefined): the “% Inhibition” value is recorded as -15% and the Z score turned out to be 1.51.

Regarding `CC(C)C[C@H]1C(=O)N(c2ccc(F)cn2)C(=O)N1C`, the “% Inhibition” value is listed as 4% and the Z score is -0.6.

For `COCC1CCCN(C(=O)[C@@H](N)C(C)(C)C)C1` (some centres undefined), the “% Inhibition” value is recorded as -3% and the Z score is recorded as 0.36.

As to `CO[C@H]1[C@H](NC(=O)c2ccco2)c2ccccc2C12CCN(Cc1nc(C(C)C)cs1)CC2`, the “% Inhibition” value was -3% and the Z score was 0.46.

As for `CCN1CC(=O)N[C@H]2CN(C(=O)Cn3nc(C)c(C)cc3=O)CC[C@@H]2OCc2cccc(c2)Oc2cccc(c2)CC1=O`, the “% Inhibition” value is -17% and the Z score worked out at 2.22.

Regarding `O=S(=O)(NC1CCCC(O)C1)c1ccc2c(c1)CCCC2` (centres undefined), the “% Inhibition” value was -8% and the Z score is 1.09.

Turning to `CCCCCNC(=O)c1n[nH]c2c1CN(C(=O)Cc1ccccc1C)CC2`, the “% Inhibition” value was determined as 9% and the Z score is listed as -1.07.

For `CCc1noc(C)c1CN[C@H]1CC(C)(C)OC1(C)C`, the “% Inhibition” value amounted to 0% and the Z score is on record as 0.03.

On to `C#CCOc1ccc([C@H]2CC(=O)Nc3c2cnn3Cc2ccc3c(c2)OCO3)cc1`, for which the “% Inhibition” value is listed as -7% and the Z score is on record as 0.68.

Turning to `CNC(=O)CN1CCN(CC2CCC2)CC1=O`, the “% Inhibition” value is -12% and the Z score amounted to 2.3.

`O=C(NC[C@H]1CCCN(c2ccncc2)C1)c1cnccn1`: the “% Inhibition” value is -8% and the Z score is listed as 1.15.

Regarding `Cc1ccc(CN2C(=O)Cn3cccc3[C@@H]2C(=O)NC2CCCC2)cc1`, the “% Inhibition” value is reported as 0% and the Z score is -0.04.

As to `CCn1nc(C)c(CNC[C@H]2COc3ccccc3O2)c1C`, the “% Inhibition” value was determined as 0% and the Z score was -0.03.

With `O=C(c1ccccc1)[C@H]1[C@]2(C(=O)Nc3ccccc32)[C@H](Cc2ccccc2)N[C@@]12C(=O)Nc1ccccc12`, the “% Inhibition” value amounted to 1% and the Z score was -0.27.

`O=C(CC1C(=O)Nc2c(F)cccc21)NC[C@H]1C[C@@H]1c1ccccc1` (some centres undefined): the “% Inhibition” value is recorded as -12% and the Z score amounted to 1.88.

Regarding `Cc1ccccc1-c1cc2c(c(O[C@H]3CCOC3)c1)OCCNC2`, the “% Inhibition” value came to 2% and the Z score is on record as -0.27.

For the compound `CCc1nnsc1C(=O)NCCc1ccc(OCc2ccccc2)cc1`, the “% Inhibition” value came out at 9% and the Z score was -1.26.

Turning to `NC(=O)[C@@H]1CCCN1S(=O)(=O)c1ccc2c(c1)CCC(=O)N2`, the “% Inhibition” value is given as -13% and the Z score is 1.82.

For the compound `COCCOc1cc(NC(=O)NC2CC(C)(OC)C2(C)C)ccn1` (centres undefined), the “% Inhibition” value came out at 6% and the Z score is reported as -1.19.

Regarding `Cc1ccc(C)c(NCN2C(=O)NC(C)(C)C2=O)c1`, the “% Inhibition” value is given as 7% and the Z score is -1.13.

Take `COc1ccccc1COc1ccc(-c2noc(C)n2)cc1OC`: the “% Inhibition” value is reported as -4% and the Z score was 0.53.

`COc1ccc(NC(=O)[C@@H](c2cccs2)N(Cc2ccccc2)C(=O)Cn2nnc3ccccc32)cc1`: the “% Inhibition” value came to 5% and the Z score is reported as -0.6.

With `CCOC(=O)N1CCC(N2CCN3CCCC3C2C2CCCCC2)CC1` (centres undefined), the “% Inhibition” value was 5% and the Z score is listed as -0.94.

Take `Cn1c(=O)n(Cc2noc(C3CC3)n2)c2ccccc21`: the “% Inhibition” value is reported as -14% and the Z score turned out to be 1.64.

In the case of `COc1cccc(C(C(=O)O)N2C[C@H]3CCN(Cc4ccccc4)[C@H]3C2)c1` (some centres undefined), the “% Inhibition” value is on record as -13% and the Z score was determined as 2.68.

Regarding `Cc1[nH]c2ccccc2c1C1=CCN(C(=O)c2nccn2C)CC1`, the “% Inhibition” value is -8% and the Z score came out at 1.53.

For the compound `O=C(CCc1ccccc1)Nc1ccc2c(c1)cc(C(=O)NCc1ccncc1)n2Cc1ccccc1`, the “% Inhibition” value is recorded as -6% and the Z score came to 0.74.

`O=C(Nc1ccc2c(c1)OCO2)c1nnc(C(=O)N2CCC[C@H](C(=O)NCc3ccccc3)C2)s1`: the “% Inhibition” value is listed as -21% and the Z score stood at 1.82.

`CN1CCN(C(=O)c2cc3n(n2)CCN(c2cc(-n4cccn4)ncn2)C3)CC1`: the “% Inhibition” value is recorded as -22% and the Z score is given as 4.12.

As to `Cc1cc(S(=O)(=O)N(CCO)CCO)c(Cl)cc1Br`, the “% Inhibition” value was -28% and the Z score came out at 3.26.

For the compound `CC1CC(C)CN(C(=O)c2ccc(NC(=O)c3cccs3)cc2)C1` (centres undefined), the “% Inhibition” value is given as -6% and the Z score turned out to be 1.2.

On to `Cc1cc(NC(=O)CN(C)[C@@H](C)CC(C)C)on1`, for which the “% Inhibition” value is reported as -9% and the Z score amounted to 0.95.

Regarding `COc1ccc(S(=O)(=O)N2C[C@H](COCC3CC3)C3(CCOCC3)C2)cc1Cl`, the “% Inhibition” value is given as -3% and the Z score is recorded as 0.43.

Take `C[C@H](NC(=O)c1cccnc1O)C(=O)N1CCCC1`: the “% Inhibition” value came out at 12% and the Z score was -1.44.

Regarding `CCOC(=O)c1cnn(-c2nc3ccccc3o2)c1C`, the “% Inhibition” value came to 1% and the Z score was -0.07.
